Experimental findings from the RNAGym collection of RNA variant scans (doi:10.1073/pnas.2313332121) are described below.

To fix the notation:
B1: TPR 5TU (parent)
chain: GGAUCUUCUCGAUCUAACAAAAAAGACAAAUCUGCCACAAAGCUUGAGAGCAUCUUCGGAUGCAGAGGCGGCAGCCUUCGGUGGCGCGAUAGCGCCAACGUUCUCAACUAUGACACGCAAAACGCGUGCUCCGUUGAAUGGAGUUUAUCAUG

Variants at the floor of the assay are shown more often than the library holds them.

The variants in this data set derive from B1. Description: polymerase ribozyme fitness, log enrichment relative to wild type (log ratio); higher = more active; in vitro selection for triplet polymerase activity. Put shortly: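 For each subunit of a heterodimeric triplet polymerase ribozyme, a mutant library was built by PCR and transcribed, then taken through a single in vitro selection round in triplicate. Selection involved annealing to a biotinylated primer, the partner subunit and triplets, incubation frozen at −7 °C, gel excision of extended constructs, capture on streptavidin beads and RT-PCR. Genotypes were retained after Illumina sequencing of inputs and outputs only with ≥10 input reads and ≥1 read in each output. Fitness is defined as the logarithm of a genotype's enrichment relative to wild-type enrichment, using inverse-variance-weighted averages across replicates, with the logarithm taken to base 2.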
On to GGAUCUUCUCGAUCUAACAAAAAAGACAAAUCUGCCACAAAGCUUGAGAGCAUCUUCGGAUGCAGAGGCGGCAGCCUUCGGUGGCGCGAUAUUGCCAACGUUCUCAACUAUGACACGCAAAACGCGUGCUCCGUUGAAUGGAGUUUAUCAUG [G92U C93U], for which the “polymerase ribozyme fitness (log ratio)” value was -2.13. Next, GGAUCUUCUCGAUCUAACAAAAAAGACAAAUCUGCCACAAAGCUUGAGAGCAUCUUCGGAUGCAGAGGCGGCAGCCUUCGGUGGCGCGAUAUCGCCAACGUUCUCAACUCUGACACGCAAAACGCGUGCUCCGUUGAAUUGAGUUUAUCAUG [G92U A110C G140U]: at most -4.2; GGAUCUUCUCGAUCUAACAAAAAAGACAAAUCUGCCACAAAGCUUGAGAGCAUCUUCGGAUGCAGAGGCGGCAGCCUUCGGUGGCGCGAUAGAGACAACGUUCACAACUAUGACACGCAAAACGCGUGCUCCGUUGAAUGCAGUUUAUCAUG [C93A C95A U104A G141C]: at most -4.2; GGAUCUUCUCGAUCUAACAAAAAAGACAAAUCUGCCACAAAGCUUGAGAGCAUCUUCGGAUGCAGAGGCGGCAGCCUUCGGUGGCGCGAUAGAGCCAACGUUGUCAACUAUGACACGCAAAACGCGUGCUCCGUUGAAUGGAGUUUAUCAUG [C93A C103G]: -3.88. The same measure for GGAUCUUCUCGAUCUAACAAAAAAGACAAAUCUGCCACAAAGCUUGAGAGCAUCUUCGGAUGCAGAGGCGGCAGCCUUCGGUGGCGCGAUAUCGCCAACGUUCGCAACCAUGACACGCAAAACGCGUGCUCCGUUGAAUGGAGUUUAUCAUG [G92U U104G U109C]: at most -4.2. For GGAUCUUCUCGAUCUAACAAAAAAGACAAAUCUGCCACAAAGCUUGAGAGCAUCUUCGGAUGCAGAGGCGGCAGCCUUCGGUGGCGCGAUAUCGCCAACGUUCUCAAGUAUGACACGCAUAACGCGUGAUCCGUUGAAUGGAGUUUAUGAUG [G92U C108G A120U C129A C149G], the “polymerase ribozyme fitness (log ratio)” value was at most -4.2. As to GGAUCUUCUCGAUCUAACAAAAAAGACAAAUCUGCCACAAAGCUUGAGAGCAUCUUCGGAUGCAGAGGCGGCAGCCUUCGGUGGCGCGAUAGAGCCGACGUUCUCAACUAUGACACGCAAAACGCGUGCUCCGUUGAAUGGAGUUUAUCAUG [C93A A97G], the “polymerase ribozyme fitness (log ratio)” value is -3.37.

Take GGAUCUUCUCGAUCUAACAAAAAAGACAAAUCUGCCACAAAGCUUGAGAGCAUCUUCGGAUGCAGAGGCGGCAGCCUUCGGUGGCGCGAUAGAGCCUACGUUCUCAACUAUGACACGCAAAACGCGUGCUCCGUUGAAUGGAGUUUAUCAUG [C93A A97U]: the “polymerase ribozyme fitness (log ratio)” value is -3.38.

Turning to GGAUCUUCUCGAUCUAACAAAAAAGACAAAUCUGCCACAAAGCUUGAGAGCAUCUUCGGAUGCAGAGGCGGCAGCCUUCGGUGGCGCGAUAUCGCCAACGUUCUCAACUAUGACACGCAAAACGCGUGCUCCCUUGAAUGGAGUUUAUCAUG [G92U G133C], the “polymerase ribozyme fitness (log ratio)” value was -2.1. Regarding GGAUCUUCUCGAUCUAACAAAAAAGACAAAUCUGCCACAAAGCUUGAGAGCAUCUUCGGAUGCAGAGGCGGCAGCCUUCGGUGGCGCGAUAGAGCCAACGUUCUCCACUAUGACACGCAAAACGCGUGCUCCGUUGAAUGGAGUUUAUCAUG [C93A A106C], the “polymerase ribozyme fitness (log ratio)” value was -2.63. Next, GGAUCUUCUCGAUCUAACAAAAAAGACAAAUCUGCCACAAAGCUUGAGAGCAUCUUCGGAUGCAGAGGCGGCAGCCUUCGGUGGCGCGAUAGAGCCAACGUUCUCAUCUAUGACACGCAAAACGCCUGCUCCGUUGAAUGGAGUUUAUCGUG [C93A A107U G126C A150G]: at most -4.2; GGAUCUUCUCGAUCUAACAAAAAAGACAAAUCUGCCACAAAGCUUGAGAGCAUCUUCGGAUGCAGAGGCGGCAGCCUUCGGUGGCGCGAUAGAGCCAACGUUCUCAACUAUGUCACGCAAAACGCGUGCUCCGUUGAAUGGAGUUUAUCAUG [C93A A113U]: -4.07; GGAUCUUCUCGAUCUAACAAAAAAGACAAAUCUGCCACAAAGCUUGAGAGCAUCUUCGGAUGCAGAGGCGGCAGCCUUCGGUGGCGCGAUAUCGCCAACGUUCUCAACUAUGACACGCAAAACGUGUGCUCCGUUGAAUGGAGUUUAUCAUG [G92U C125U]: -1.4. Next, GGAUCUUCUCGAUCUAACAAAAAAGACAAAUCUGCCACAAAGCUUGAGAGCAUCUUCGGAUGCAGAGGCGGCAGCCUUCGGUGGCGCGAUAGAGCCAACGUUCUCAACUAUGACACGCAAAACGCGUGCUCCGUUGAAUGGGGUUUAUCAUG [C93A A142G]: -2.77; GGAUCUUCUCGAUCUAACAAAAAAGACAAAUCUGCCACAAAGCUUGAGAGCAUCUUCGGAUGCAGAGGCGGCAGCCUUCGGUGGCGCGAUAGAGCCAACGUUCUAAACUAUGACACGCAAAACGCGUGCUCCGUUGAAUGGAGUUUAUCAUG [C93A C105A]: at most -4.2. Turning to GGAUCUUCUCGAUCUAACAAAAAAGACAAAUCUGCCACAAAGCUUGAGAGCAUCUUCGGAUGCAGAGGCGGCAGCCUUCGGUGGCGCGAUAGAGCCAACGUUAUCAAAUAUGGCACGCAAAACGCGUGCUCCGUUGAAUGGAGUUUAUCAUG [C93A C103A C108A A113G], the “polymerase ribozyme fitness (log ratio)” value is at most -4.2.

With GGAUCUUCUCGAUCUAACAAAAAAGACAAAUCUGCCACAAAGCUUGAGAGCAUCUUCGGAUGCAGAGGCGGCAGCCUUCGGUGGCGCGAUAGAGCCAACGUUGUCAACUAUGACACGCACAACGCGUGCUCCGUUCAAUGGAGUUUAUCAUG [C93A C103G A120C G136C], the “polymerase ribozyme fitness (log ratio)” value was at most -4.2.

With GGAUCUUCUCGAUCUAACAAAAAAGACAAAUCUGCCACAAAGCUUGAGAGCAUCUUCGGAUGCAGAGGCGGCAGCCUUCGGUGGCGCGAUAUCGCCAACGUUCUCAACUAUGACACGCAAAACGCGUGCUCCGUUCAAUGGAGUUUAUCAUG [G92U G136C], the “polymerase ribozyme fitness (log ratio)” value is -3.44. The same measure for GGAUCUUCUCGAUCUAACAAAAAAGACAAAUCUGCCACAAAGCUUGAGAGCAUCUUCGGAUGCAGAGGCGGCAGCCUUCGGUGGCGCGAUAUCGCCAAUGUUCUCAACUAUGACACGCAAAACGCGUGCUCCGUUGAAUGGAGUUUAACAUG [G92U C99U U148A]: at most -4.2.
